Assay results as given in PubChem BioAssay AID1508623 (National Center for Advancing Translational Sciences (NCATS), 2021).
The whole screen tested about 48,000 compounds, of which about 450 (0.94%) were called active. Roughly 19% stayed inconclusive and do not appear here. The call rests on the fitted dose curve; in most records, active means well fitted inhibition curve with a large enough effect; inconclusive means small, poorly fitted or top-dose-only effect; inactive means no such curve, though single readings can be large or run the other way. This is one part of the list.

Test: Primary qHTS for Identification of Small Molecule Inhibitors of Huntingtin Promoter Activity; further: nearly all actives have a fitted effect of over 50% in size
Conditions: HEK293 HTT promoter firefly luciferase reporter (activity 0% = vehicle and -100% = no light), 24 h; series mostly up to 57.5 µM; activity change, negative = inhibition: at the top concentration
Outline: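 HEK293 cells carrying firefly luciferase reporters were seeded at 2,500 per well in Opti-MEM and cultured for 24 h. They were then treated with compounds at up to 57.5 uM final for 24 h at 37 degrees C before Dual-Glo luminescence readout.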

Activity change, negative = inhibition, inactive:
O=c1c(NCCc2ccc(Cl)cc2)nccn1-c1ccccc1 -29.5%
COc1ccccc1NC(=O)CCNS(=O)(=O)c1ccc2c(c1)CCN2C(=O)C1CC1 -15.3% [at 11.5 µM]
COc1ccc(OC)c(CCNC(=O)c2cc3cccc4c3n2CCS4)c1 -24.1%
Cc1cc2n(n1)CCCN2C(=O)Nc1ccc(C)c(Cl)c1 -20.8%
CCN(Cc1ccccc1)C(=O)CCS(=O)(=O)c1cc(Br)cc2c1N(C(=O)C1CC1)CC2 -22.7%
CN(c1ccccc1)S(=O)(=O)c1nnc(NC(=O)c2cccs2)s1 -2.6%
CCOc1ccccc1NC(=O)Cn1c(=O)n(CCCCC(=O)NCCCOC)c(=O)c2ccccc21 -11.4%
c1ccc2[nH]ccc2c1 -10.5%
Cc1ccc2[nH]c3c(=O)n(CC(=O)NCCCN4CCN(c5ccc(F)cc5)CC4)ncc3c2c1 6.12%
CCc1ccccc1N(C)C(=O)c1cc2c(Cl)nc3ccc(C)cc3c2s1 -4.68%
CCc1ccc(NC(=O)Cn2nnc(C(=O)NCCc3ccccc3)c2N)cc1 -8.99%
N#Cc1ccccc1Cn1c(=O)n(-c2ccccc2)c(=O)c2c3c(sc21)CCC3 10.5%
O=C(NCc1cccc(F)c1)C1CCN(c2nn3cc(-c4ccc(F)cc4)nc3s2)CC1 0.346%
CC1CCN(S(=O)(=O)c2ccc3c(c2)oc(=O)n3CC(=O)N2CCCCC2)CC1 -30.4%
Cc1cccc(C)c1NC(=O)c1nc(SC(C)C)ncc1Cl -31.2%
O=C(Nc1ccc(O)c(-c2nc3ccccc3o2)c1)c1ccc(-c2cccc(Cl)c2)o1 -2.6%
COCCCNC(=O)C1CCN(C(=O)c2ccc(-n3ccc4ccccc43)s2)CC1 35.3%
Cc1cc(C)cc(N(CC(=O)Nc2ccc(C)cc2Cl)S(=O)(=O)c2c(C)[nH]c(=O)[nH]c2=O)c1 -26.3%
Cc1cc(O)c2c(c1)C(=O)c1cccc(O)c1C2=O -7.91%
COc1cccc(CNC(=O)CSc2nnc(C)c3c(C)n(-c4ccccc4)nc23)c1 -19.8%
NC(=O)c1cn(Cc2c(F)cccc2F)nn1 0.109%
Cc1ccccc1Nc1c(-c2ccc(O)cc2)nc2c(C)cccn12 -16.1%
COc1ccc(NC(=O)CCS(=O)(=O)c2cc3c4c(c2)CCN4C(=O)CC3)cc1OC -21.1%
CCC(C(=O)Nc1ccc(F)cc1F)n1nc(-c2ccccc2)c2c(c1=O)CCCC2 (configuration not stated) -23.2%
COc1cc2c(N3CCN(C(=O)Nc4ccc(OC(C)C)cc4)CC3)ncnc2cc1OCCCN1CCCCC1
Cc1nc(N)c(S(=O)(=O)c2ccccc2)c(Nc2ccc(Br)cc2)n1 4.78%
CC(=O)N1c2ccccc2CC1C(=O)N1CCN(c2cc(Cl)ccc2C)CC1 (configuration not stated) -13.5%
